Where “and” joins values, the source holds several entries; their conditions need not be identical. Equal entries are not always repeated. About 4,500 (2.2%) of roughly 200,000 compounds were called active. This list was built around the results that the source calls inconclusive (neither active nor inactive); the mix of calls is not that of the screen. The call rests on the fitted dose curve; in most records, active means well fitted inhibition curve with a large enough effect; inconclusive means small, poorly fitted or top-dose-only effect, or effect the other way; inactive means flat fitted curve, though single readings scatter. Potencies of inconclusive entries are doubtful fits and often do not repeat. The source holds several records for some structures; these can differ, active in one and inactive in another.
The molecules below were run against Cruzipain (Trypanosoma cruzi) (UniProt P25779) (assay: qHTS Assay for Promiscuous and Specific Inhibitors of Cruzain (without detergent)). Conditions: purified cruzain, Z-FR-AMC fluorescence, no detergent.
Chain of UniProt P25779 (P25779 whole entry, looked up): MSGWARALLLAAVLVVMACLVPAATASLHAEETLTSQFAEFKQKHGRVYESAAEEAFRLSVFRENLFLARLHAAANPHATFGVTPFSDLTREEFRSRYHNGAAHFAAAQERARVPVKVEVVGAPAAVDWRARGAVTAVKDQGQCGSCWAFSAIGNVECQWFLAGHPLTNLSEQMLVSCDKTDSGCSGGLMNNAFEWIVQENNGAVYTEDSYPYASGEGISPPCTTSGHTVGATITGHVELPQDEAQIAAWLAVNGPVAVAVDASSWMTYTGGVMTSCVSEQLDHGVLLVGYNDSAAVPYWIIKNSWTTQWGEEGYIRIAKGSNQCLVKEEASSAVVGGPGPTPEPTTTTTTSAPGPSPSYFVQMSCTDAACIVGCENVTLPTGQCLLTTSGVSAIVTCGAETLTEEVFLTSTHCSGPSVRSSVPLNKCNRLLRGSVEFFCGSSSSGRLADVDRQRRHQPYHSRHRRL
Outline: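 Detergent-free condition (0.00005% Triton X-100) in acetate buffer pH 5.5 with DTT. 1.5 nM enzyme and compound were pre-mixed 15 min, then 2 uM Z-FR-AMC substrate added; reaction progress from fluorescence change between first and third reads (60 s).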
Further: nearly all actives have a fitted effect of over 40% in size.
Potency means the concentration at half of the fitted maximal effect; tags describe the fitted curve by direction and shape.
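Wherever max response, negative = inhibition is given: plate controls were enzyme without inhibitor for no effect and buffer without enzyme for full effect.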

Row | Compound | Potency | max response, negative = inhibition
1 | Cc1ccc(CCNC(=O)c2ccc3c(c2)N(Cc2cccc(Cl)c2)C(=O)c2ccccc2S3(=O)=O)cc1 | inconclusive: 31.6 µM [inhibitor, single point] | –
2 | CCOc1ccc(N2Cc3ccccc3C2)cc1 | active: 15.8 µM | –
3 | CCn1cc2nc(SCc3cccc(Cl)c3)n(Cc3ccc(C)cc3)c(=O)c2n1 | inconclusive: 25.1 µM [activator, single point] | –
4 | CC(C)c1cnc2c(c1SCC(=O)Nc1cccc(F)c1)c(=O)n(C)c(=O)n2C | – | inactive: -2.56%
5 | CC1Cc2ccccc2N1Cc1nc2cc(C(F)(F)F)ccc2c(=O)[nH]1 (configuration not stated) | active: 25.1 µM | –
6 | CCOc1ccc(C(=O)NC(=S)Nc2ccccc2N2CCC(C)CC2)cc1[N+](=O)[O-] | inconclusive: 15.8 µM [inhibitor, partial curve] | –
7 | Cc1c(Cl)cccc1NC(=S)NCCC(c1ccccc1)c1ccccc1 | inconclusive: 39.8 µM [inhibitor, single point] | –
8 | C=CCSc1nc2c(cnn2-c2ccc(C)c(C)c2)c(=O)[nH]1 | inconclusive: 25.1 µM [inhibitor, single point] | –
9 | COc1ccc(C(=O)Nc2ccc3oc(-c4cccc(F)c4)nc3c2)cc1OC | inconclusive: 39.8 µM [activator, single point] | –
10 | CN(C(=O)CSc1nnc(-c2ccccc2F)o1)C1CCCCC1 | – | inactive: -10.2%
11 | CCCN1C(=O)C2(c3ccccc31)c1c(oc3ccc(F)cc3c1=O)C(=O)N2CCCOC(C)C (configuration not stated) | inconclusive: 31.6 µM [activator, partial curve] | –
12 | CCOc1ccc(Br)cc1S(=O)(=O)Nc1ccc(Cl)c(S(=O)(=O)N(CC)c2ccccc2)c1 | inconclusive: 31.6 µM [inhibitor, single point] | –
13 | CCOc1ccc(CN2C(=O)c3ccccc3Sc3ccc(C(=O)O)cc32)cc1 | inconclusive: 31.6 µM [activator, single point] | –
14 | CSc1ccc(/C=C/c2nc3ccccc3n2S(=O)(=O)c2cccc(Cl)c2)cc1 | – | inactive: -0.591%
15 | CCOc1cc(NC(=S)Nc2ccccc2)c(OCC)cc1NC(=O)c1ccccc1 | inconclusive: 39.8 µM [inhibitor, single point] | –
16 | CCCC[C@H]1C[C@@H]1[C@@H]1N(P(=O)(c2ccccc2)c2ccccc2)C[C@@](O)(c2ccccc2)CC12CC2 | – | inactive: -13.1%
17 | CCOc1ccc(CN(C(=O)c2cc(=O)c3cc(C)cc(C)c3o2)C2CCS(=O)(=O)C2)cc1 (configuration not stated) | inconclusive: 39.8 µM [activator, single point] | –
18 | Cc1ccc2c(c1)c(=O)c(C(=O)c1ccc3c(c1)OCO3)cn2Cc1ccc(Cl)cc1 | inconclusive: 39.8 µM [inhibitor, single point] | –
19 | Cc1nn(C(C)C(=O)N2CCN(c3ccc(Cl)cc3)CC2)c(=O)c2cc3occc3n12 (configuration not stated) | inconclusive: 39.8 µM [activator, single point] | –
20 | CCOC(=O)N1CCN(Cc2nc3c(c(=O)n(C)c(=O)n3C)n2CCCc2ccccc2)CC1 | inconclusive: 31.6 µM [activator, single point] | –
21 | O=C(Cn1nnc(-c2ccccc2)n1)N/N=C/c1ccc(-c2ccc(Cl)cc2)o1 | inconclusive: 39.8 µM [inhibitor, single point] | –

Row | Compound | Potency | max response, negative = inhibition
22 | CCOC(=O)N1CCC(Nc2c(N3CCN(c4cc(Cl)ccc4C)CC3)c(=O)c2=O)CC1 | inconclusive: 39.8 µM [activator, single point] | –
23 | CCOC(=O)c1ccc(NC(=O)CSc2cc(=O)n(CC)c3ccccc23)cc1 | – | inactive: -5.72%
24 | COC(=O)CN(C#N)c1nc(SC)nc(N(C)C)n1 | active: 12.6 µM | –
25 | CCOc1ccccc1N1CCN(c2nc(N)c(C#N)c(CC#N)c2C#N)CC1 | inconclusive: 31.6 µM [inhibitor, single point] | –
26 | O=C1NC(=O)[C@]2(Cc3ccccc3N3CCN(c4ccccc4)CC32)C(=O)N1Cc1ccccc1 (some centres not stated) | inconclusive: 39.8 µM [activator, single point] | –
27 | CCCn1c(N2CCN(S(=O)(=O)Cc3ccccc3)CC2)nc2ccccc21 | – | inactive: 3.29%
28 | CCc1ccc(-n2c(=O)c3c4c(sc3n(CC(=O)N3CCC(C)CC3)c2=O)CCC4)cc1 | – | inactive: -5.14%
29 | COc1ccc(NC(=O)N2CCCC3(CCN(S(=O)(=O)c4ccccc4)CC3)C2)cc1 | – | inactive: 9.94%
30 | CCCc1nn2c(=O)cc(COc3ccc(/C=C(\C#N)C(=O)Nc4ccccc4)cc3)nc2s1 | – | inactive: 7.43%
31 | COc1ccc(/C=N/NC(=O)c2nn(-c3ccccc3)c(=O)c3c(N)scc23)cc1 | active: 20 µM | –
32 | c1ccc(Nc2nc(-c3cccs3)cs2)nc1 | inconclusive: 31.6 µM [inhibitor, single point] | –
33 | COc1ccccc1N1C(C)=CC(=C(C#N)c2nc3ccccc3s2)C=C1C | inconclusive: 39.8 µM [inhibitor, single point] | –
34 | CC1=CC(C)(C)Nc2ccccc21 | active: 15.8 µM | inactive: -3.32% and inactive: -2.1%
35 | COc1ccc2c(c1)-c1c(ssc1=S)C(C)(C)N2C(=O)CSC1=NCCS1 | inconclusive: 39.8 µM [inhibitor, single point] | –
36 | COc1ccccc1NS(=O)(=O)c1cccc(C(=O)N/N=C/c2ccc(N3CCOCC3)cc2)c1 | inconclusive: 39.8 µM [activator, single point] | –
37 | Cc1c(C(=O)N2CCCCCC2)c(S(=O)(=O)N(Cc2ccccc2)C(C)(C)C)c(C)n1C | inconclusive: 25.1 µM [activator, single point] | –
38 | COC(CNc1cc(=O)oc2ccccc12)OC | – | inactive: 2.65%
39 | CN(CCOc1ccc(-c2ccn(S(=O)(=O)c3ccc(Cl)cc3)n2)cc1)c1ccccn1 | – | inactive: -28.6%
40 | CCCCN(CC)CCNC(=O)C1CCCN(S(=O)(=O)c2cccc3nsnc23)C1 (configuration not stated) | inconclusive: 31.6 µM [inhibitor, single point] | –
41 | O=C(Cn1ncc2ccsc2c1=O)N1CCN(c2ccccc2F)CC1 | – | inactive: -16.2%

Source: PubChem BioAssay AID1476 (National Center for Advancing Translational Sciences (NCATS), 2009)
